# From the supplement of paper PMC8728848
# The list shows a part of the results.
# B1: Arath Fbox (Arabidopsis thaliana), NP_178341.1 (protein)
# chain: EFTWGRKRRVKSESSPFDSFPEDCISYIISFTNPRDACVAATVSKTFESTVKSDIIWEKFLPADYESLIPPSRVFSSKKELYFSLCNDPVLFDDDKKSVWLEKASGKRCLMLSAMNLSIIWGDNPQYWQWIPIPESRFEKVAKLRDVCWFEIRGRTNTRVLSPRTRYSAYIVFKGVDKCYGFQNVAIEAAVGVVGQEPSRRLICFSEAIRRGRRNVVKPKQREDGWMEIELGEFFNDGGIMDNDEIEMSALETKQLNRKCGLIIQGIEIRPAKILAAAAASFLEQKLISEEDLNSAVDHHHHHH
# Assays:
# Assay in all cases: glycan array binding signal (z-score within array); higher = stronger binding
# Settings in all cases: glycan notation: IUPAC condensed, linker removed
# GlcNAc(b1-3)GalNAc = biological target: GlcNAc(b1-3)GalNAc
# Summary of the method: (§1)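 Glycan array binding is given as a within-array Z-score, which can be read as non-binding when negative. The arrays, 3228 of them, came from the Consortium for Functional Glycomics database and were retained only where the protein sequence was available. Z-scores were averaged across arrays of the same protein sequence at different concentrations or buffers and across linkers.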
# GlcNAc(b1-3)Man = biological target: GlcNAc(b1-3)Man
# Summary of the method: as §1
# [1] = biological target: GlcNAc(b1-3)[GlcNAc(b1-4)][GlcNAc(b1-6)]GlcNAc
# Summary of the method: as §1
# [2] = biological target: GlcNAc(b1-3)[GlcNAc(b1-6)]Gal(b1-4)GlcNAc
# Summary of the method: as §1
# [3] = biological target: GlcNAc(b1-3)[GlcNAc(b1-6)]GalNAc
# Summary of the method: as §1
# [4] = biological target: GlcNAc(b1-4)Gal(b1-4)GlcNAc
# Summary of the method: as §1
# GlcNAc(b1-4)GlcNAc = biological target: GlcNAc(b1-4)GlcNAc
# Summary of the method: as §1
# [5] = biological target: GlcNAc(b1-4)GlcNAc(b1-4)GlcNAc
# Summary of the method: as §1
# [6] = biological target: GlcNAc(b1-4)GlcNAc(b1-4)GlcNAc(b1-4)GlcNAc(b1-4)GlcNAc
# Summary of the method: as §1
# [7] = biological target: GlcNAc(b1-4)GlcNAc(b1-4)GlcNAc(b1-4)GlcNAc(b1-4)GlcNAc(b1-4)GlcNAc
# Summary of the method: as §1
# [8] = biological target: GlcNAc(b1-4)[GlcNAc(b1-6)]GalNAc
# Summary of the method: as §1
# [9] = biological target: GlcNAc(b1-6)Gal(b1-4)GlcNAc
# Summary of the method: as §1
# GlcNAc(b1-6)GalNAc = biological target: GlcNAc(b1-6)GalNAc
# Summary of the method: as §1
# [10] = biological target: GlcNAc6S(b1-3)Gal(b1-4)GlcNAc
# Summary of the method: as §1
# Kdn(a2-3)Gal(b1-3)GalNAc = biological target: Kdn(a2-3)Gal(b1-3)GalNAc
# Summary of the method: as §1
# Kdn(a2-3)Gal(b1-3)GlcNAc = biological target: Kdn(a2-3)Gal(b1-3)GlcNAc
# Summary of the method: as §1
# Kdn(a2-3)Gal(b1-4)Glc = biological target: Kdn(a2-3)Gal(b1-4)Glc
# Summary of the method: as §1
# Kdn(a2-3)Gal(b1-4)GlcNAc = biological target: Kdn(a2-3)Gal(b1-4)GlcNAc
# Summary of the method: as §1
# [11] = biological target: Kdn(a2-3)Gal(b1-4)[Fuc(a1-3)]GlcNAc
# Summary of the method: as §1
# Kdn(a2-6)Gal(b1-4)GlcNAc = biological target: Kdn(a2-6)Gal(b1-4)GlcNAc
# Summary of the method: as §1
# [12] = biological target: Man(a1-2)Man(a1-2)Man(a1-3)Man
# Summary of the method: as §1
# [13] = biological target: Man(a1-2)Man(a1-2)Man(a1-6)[Man(a1-3)]Man
# Summary of the method: as §1
# Man(a1-2)Man(a1-3)Man = biological target: Man(a1-2)Man(a1-3)Man
# Summary of the method: as §1
# [14] = biological target: Man(a1-2)Man(a1-3)[Man(a1-2)Man(a1-6)]Man
# Summary of the method: as §1
# [15] = biological target: Man(a1-2)Man(a1-3)[Man(a1-2)Man(a1-6)]Man(a1-6)[Man(a1-2)Man(a1-2)Man(a1-3)]Man
# Summary of the method: as §1
# [16] = biological target: Man(a1-2)Man(a1-3)[Man(a1-2)Man(a1-6)]Man(a1-6)[Man(a1-2)Man(a1-2)Man(a1-3)]Man(b1-4)GlcNAc(b1-4)GlcNAc
# Summary of the method: as §1
# [17] = biological target: Man(a1-2)Man(a1-3)[Man(a1-6)]Man(a1-6)[Man(a1-2)Man(a1-3)]Man(b1-4)GlcNAc(b1-4)GlcNAc
# Summary of the method: as §1
# [18] = biological target: Man(a1-2)Man(a1-6)[Man(a1-3)]Man(a1-6)[Man(a1-2)Man(a1-2)Man(a1-3)]Man
# Summary of the method: as §1
# [19] = biological target: Man(a1-2)Man(a1-6)[Man(a1-3)]Man(a1-6)[Man(a1-2)Man(a1-2)Man(a1-3)]Man(b1-4)GlcNAc(b1-4)GlcNAc
# Summary of the method: as §1
# Man(a1-3)[Man(a1-6)]Man = biological target: Man(a1-3)[Man(a1-6)]Man
# Summary of the method: as §1
# [20] = biological target: Man(a1-3)[Man(a1-6)]Man(a1-6)[Man(a1-2)Man(a1-3)]Man(b1-4)GlcNAc(b1-4)GlcNAc
# Summary of the method: as §1
# [21] = biological target: Man(a1-3)[Man(a1-6)]Man(a1-6)[Man(a1-3)]Man
# Summary of the method: as §1
# [22] = biological target: Man(a1-3)[Man(a1-6)]Man(a1-6)[Man(a1-3)]Man(b1-4)GlcNAc(b1-4)GlcNAc
# Summary of the method: as §1
# [23] = biological target: Man(a1-3)[Man(a1-6)]Man(b1-4)GlcNAc(b1-4)GlcNAc
# Summary of the method: as §1
# [24] = biological target: Man(a1-3)[Man(a1-6)]Man(b1-4)GlcNAc(b1-4)[Fuc(a1-6)]GlcNAc
# Summary of the method: as §1
# Man(a1-6)Man = biological target: Man(a1-6)Man
# Summary of the method: as §1
# Man(b1-4)GlcNAc = biological target: Man(b1-4)GlcNAc
# Summary of the method: as §1
# MurNAc(b1-4)GlcNAc = biological target: MurNAc(b1-4)GlcNAc
# Summary of the method: as §1
binder,measurement,setting,value
B1,glycan array binding signal (z-score),GlcNAc(b1-3)GalNAc,-0.488
same,glycan array binding signal (z-score),GlcNAc(b1-3)Man,-0.454
same,glycan array binding signal (z-score),[1],-0.066
same,glycan array binding signal (z-score),[2],-0.517
same,glycan array binding signal (z-score),[3],-0.541
same,glycan array binding signal (z-score),[4],-0.483
same,glycan array binding signal (z-score),GlcNAc(b1-4)GlcNAc,-0.69
same,glycan array binding signal (z-score),[5],-0.656
same,glycan array binding signal (z-score),[6],-0.358
same,glycan array binding signal (z-score),[7],-0.601
same,glycan array binding signal (z-score),[8],-0.42
same,glycan array binding signal (z-score),[9],-0.56
same,glycan array binding signal (z-score),GlcNAc(b1-6)GalNAc,-0.149
same,glycan array binding signal (z-score),[10],0.585
same,glycan array binding signal (z-score),Kdn(a2-3)Gal(b1-3)GalNAc,-0.352
same,glycan array binding signal (z-score),Kdn(a2-3)Gal(b1-3)GlcNAc,-0.723
same,glycan array binding signal (z-score),Kdn(a2-3)Gal(b1-4)Glc,0.084
same,glycan array binding signal (z-score),Kdn(a2-3)Gal(b1-4)GlcNAc,-0.701
same,glycan array binding signal (z-score),[11],1.23
same,glycan array binding signal (z-score),Kdn(a2-6)Gal(b1-4)GlcNAc,-0.608
same,glycan array binding signal (z-score),[12],-0.662
same,glycan array binding signal (z-score),[13],-0.656
same,glycan array binding signal (z-score),Man(a1-2)Man(a1-3)Man,-0.502
same,glycan array binding signal (z-score),[14],-0.73
same,glycan array binding signal (z-score),[15],-0.653
same,glycan array binding signal (z-score),[16],0.244
same,glycan array binding signal (z-score),[17],-0.507
same,glycan array binding signal (z-score),[18],-0.637
same,glycan array binding signal (z-score),[19],-0.362
same,glycan array binding signal (z-score),Man(a1-3)[Man(a1-6)]Man,-0.448
same,glycan array binding signal (z-score),[20],-0.052
same,glycan array binding signal (z-score),[21],-0.662
same,glycan array binding signal (z-score),[22],1.57
same,glycan array binding signal (z-score),[23],-0.721
same,glycan array binding signal (z-score),[24],-0.72
same,glycan array binding signal (z-score),Man(a1-6)Man,1.25
same,glycan array binding signal (z-score),Man(b1-4)GlcNAc,-0.667
same,glycan array binding signal (z-score),MurNAc(b1-4)GlcNAc,-0.651
